Laboratory results taken from the supplement of paper PMC3334620.
In all, about 33,000 sequences were measured (“E-score (-0.5 to 0.5)”: median about -0.054, highest 2% from about 0.35 on). The list shows a part of the results.

Molecular target: T1, Stb5 (UniProt P38699)
T1 sequence: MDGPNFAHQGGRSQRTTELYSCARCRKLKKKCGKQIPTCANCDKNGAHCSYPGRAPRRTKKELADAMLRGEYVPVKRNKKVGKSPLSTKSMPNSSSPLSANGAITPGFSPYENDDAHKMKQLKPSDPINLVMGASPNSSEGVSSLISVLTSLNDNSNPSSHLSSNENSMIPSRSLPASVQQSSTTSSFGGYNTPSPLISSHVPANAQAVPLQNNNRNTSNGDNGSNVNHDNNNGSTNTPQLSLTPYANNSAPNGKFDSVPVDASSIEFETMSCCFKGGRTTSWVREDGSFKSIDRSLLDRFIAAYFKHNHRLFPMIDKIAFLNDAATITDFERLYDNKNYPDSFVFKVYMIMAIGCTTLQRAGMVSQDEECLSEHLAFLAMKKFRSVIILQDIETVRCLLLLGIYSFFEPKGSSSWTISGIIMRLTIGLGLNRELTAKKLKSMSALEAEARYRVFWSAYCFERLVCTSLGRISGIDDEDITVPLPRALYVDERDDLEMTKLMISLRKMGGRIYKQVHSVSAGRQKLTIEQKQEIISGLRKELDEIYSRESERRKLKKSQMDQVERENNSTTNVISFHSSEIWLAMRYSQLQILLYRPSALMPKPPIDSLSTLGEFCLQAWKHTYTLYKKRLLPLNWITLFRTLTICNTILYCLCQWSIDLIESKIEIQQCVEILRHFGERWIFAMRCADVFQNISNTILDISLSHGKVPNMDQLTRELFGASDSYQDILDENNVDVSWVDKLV
Assay: PBM E-score (8-mer binding enrichment) (E-score (-0.5 to 0.5)); higher = stronger / more preferred TF binding; most listed sequences are background and not binding sites
Settings: protein concentration: 200 nM; construct: GST-full length
Method in brief: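 Using PURExpress in vitro transcription/translation, GST-tagged yeast transcription factors were made in full-length or DNA-binding-domain form. These were applied at about 100-200 nM to double-stranded universal all-10-mer Agilent arrays, and bound protein was detected with fluorescent anti-GST. Scans were normalised with masliner before the Universal PBM Analysis Suite assigned E-scores to ungapped eight-base words pooled with their reverse complements.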

Compared with GCTCCCAC, AGCTGCCA is lower in “PBM E-score” value: -0.122 for the first, -0.17 for the second.

Compared with CAAACTAC, CGTTCCGC is higher in “PBM E-score” value: -0.158 for the first, 0.226 for the second.

Going from CCAGATCG to CCCACTTA, the “PBM E-score” value falls from 0.0559 to -0.176.

First: CGCAACAG
Second: ATTTTCAA
The “PBM E-score” value of the first is lower: -0.0441 for the first, -0.041 for the second.

Going from ACATAGAA to TCTCGACA, the “PBM E-score” value falls from -0.0458 to -0.109.

First: CTGGTTTA
Second: CACCTAAC
The “PBM E-score” value of the first is higher: -0.0641 for the first, -0.0891 for the second.

Compared with GCTTTCGA, AGTACACA is higher in “PBM E-score” value: -0.179 for the first, -0.129 for the second.

Going from CCACTTCG to CAACTGTA, the “PBM E-score” value falls from 0.109 to -0.182.

First: ATGTCAGG
Second: CCCGAGGA
The “PBM E-score” value of the first is lower: -0.0876 for the first, 0.0178 for the second.

Compared with ATTGTTTC, CGACGCAG is higher in “PBM E-score” value: -0.0126 for the first, 0.0483 for the second.

Compared with TCCCGTAA, AACTGCAC is lower in “PBM E-score” value: 0.0139 for the first, -0.247 for the second.

Compared with AACAGCTG, GCTGAAGA is higher in “PBM E-score” value: -0.278 for the first, -0.238 for the second.

First: AGAGAAAG
Second: CAGCTACC
The “PBM E-score” value of the first is lower: -0.333 for the first, -0.167 for the second.

First: ATTGCTCA
Second: CAATCCGG
The “PBM E-score” value of the first is lower: -0.143 for the first, 0.167 for the second.

First: AGATTGTG
Second: ATTTGCTC
The “PBM E-score” value of the first is higher: -0.0847 for the first, -0.0873 for the second.

First: ACGCGTCT
Second: GACGTCAA
The “PBM E-score” value of the first is higher: -0.089 for the first, -0.231 for the second.

Compared with AACCCTAA, AGCCCCTG is lower in “PBM E-score” value: -0.0664 for the first, -0.157 for the second.

Compared with ATAGAAGG, GCAAGTGC is lower in “PBM E-score” value: -0.023 for the first, -0.191 for the second.

First: CTGCGCTC
Second: AGTGCCCG
The “PBM E-score” value of the first is lower: -0.0984 for the first, 0.14 for the second.

Going from AACGTAAA to ATAGGTCC, the “PBM E-score” value rises from -0.1 to 0.341.

Compared with ATGATGTG, AGATTTTC is higher in “PBM E-score” value: -0.197 for the first, -0.175 for the second.

Going from CGTCAGAC to CACGGCAG, the “PBM E-score” value rises from -0.0468 to -0.0156.

First: GTCTTTTA
Second: CGTCCGAA
The “PBM E-score” value of the first is lower: -0.0581 for the first, 0.191 for the second.

First: AACGGCGC
Second: ACGGTCGA
The “PBM E-score” value of the first is higher: 0.222 for the first, -0.00303 for the second.

Compared with CGCATGCG, AACCGTTG is higher in “PBM E-score” value: -0.025 for the first, 0.00655 for the second.

First: CGTGGACA
Second: ACAGGGCC
The “PBM E-score” value of the first is lower: 0.0613 for the first, 0.115 for the second.

Going from CTACAGCC to CTAGGAAC, the “PBM E-score” value falls from -0.0412 to -0.0904.

First: AAAACTGC
Second: CTGAATGA
The “PBM E-score” value of the first is higher: -0.0726 for the first, -0.0871 for the second.

Going from AAAGCCGT to GCACGGGC, the “PBM E-score” value falls from 0.324 to 0.2.

Going from ATCTTTTA to CTGAATCA, the “PBM E-score” value falls from 0.034 to -0.177.

First: GCATGGAC
Second: CAGACCGG
The “PBM E-score” value of the first is lower: 0.0532 for the first, 0.272 for the second.

First: CGAGACAC
Second: AGGCCAAC
The “PBM E-score” value of the first is higher: -0.00135 for the first, -0.162 for the second.

Compared with GTTGTTTA, ATCTTGGA is lower in “PBM E-score” value: -0.145 for the first, -0.264 for the second.

First: ACTCTAGA
Second: ACGAAAGG
The “PBM E-score” value of the first is lower: -0.231 for the first, 0.14 for the second.

Going from CATGCCCA to CCCTAATC, the “PBM E-score” value rises from -0.252 to -0.0512.

Compared with GCGGCCGC, ACACTCAT is lower in “PBM E-score” value: 0.271 for the first, -0.116 for the second.

First: ACGAAGTC
Second: AGCGTGTG
The “PBM E-score” value of the first is lower: -0.168 for the first, -0.0578 for the second.

Compared with CAACGACG, ATAAACGA is lower in “PBM E-score” value: 0.145 for the first, 0.0369 for the second.

Compared with CACGAGAA, CCATCGGA is higher in “PBM E-score” value: -0.259 for the first, 0.232 for the second.

Going from CTCGTGAA to GCGGTTAA, the “PBM E-score” value rises from -0.255 to 0.185.

Compared with GACCTAGC, GTGAACGA is lower in “PBM E-score” value: -0.0632 for the first, -0.147 for the second.

Going from GCTTTTAC to CCGGCACA, the “PBM E-score” value falls from 0.265 to 0.211.

First: ATATAAAA
Second: AGAGGCCG
The “PBM E-score” value of the first is lower: 0.156 for the first, 0.281 for the second.

Compared with ACTTATCT, ACGGTTTA is lower in “PBM E-score” value: -0.135 for the first, -0.18 for the second.

Going from ATTGATGC to CGATCGAG, the “PBM E-score” value rises from -0.0372 to -0.0275.

First: GCATAACA
Second: ACGCTTAT
The “PBM E-score” value of the first is lower: -0.194 for the first, -0.177 for the second.

Compared with GACCAGGC, AGAGACAG is lower in “PBM E-score” value: -0.237 for the first, -0.273 for the second.

Compared with AGATTAGC, GTGCAGAA is higher in “PBM E-score” value: -0.0635 for the first, 0.12 for the second.

Going from TAATTCCA to ATTTGGAA, the “PBM E-score” value falls from -0.0352 to -0.109.

Going from CTAGGATC to GAGTCCTA, the “PBM E-score” value falls from -0.0849 to -0.317.

Going from ATAGGGTA to CTTGCGAC, the “PBM E-score” value rises from -0.141 to -0.12.

Compared with GCAGAGCA, AACTCCAC is higher in “PBM E-score” value: -0.224 for the first, 0.0324 for the second.

Compared with AAGGTCAA, CGGCCCCA is higher in “PBM E-score” value: -0.128 for the first, 0.237 for the second.

First: ATCGAGCC
Second: GCTTAACA
The “PBM E-score” value of the first is lower: 0.0311 for the first, 0.146 for the second.

For TGAAGGCA, the “PBM E-score” value was -0.265.
